We go through 45 sequences from the supplement of paper PMC11417369.

± gives the standard deviation of the averaged measurements. This is one part of the list.

This assay has as its system PfAP2-EXP AP2 domain (GST-tagged). Kind of assay: gcPBM binding intensity (ln(normalized median fluorescence intensity)); higher = stronger DNA binding. The essentials:
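An Agilent 4 × 180k array of primer-extended double-stranded 36-bp intergenic genomic probes, with negative controls, was incubated for 1 h with GST-tagged P. falciparum DNA-binding domains expressed in E. coli. Alexa488 anti-GST antibody detected bound protein, scanned at 488 nm. Binding intensity is the highest Masliner-normalised natural-log median intensity across replicate spots of either probe orientation.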
Consider “CTAAAATGTAAAAACGCACACATAATATTATAAAAA [CACACA_site2788]”, for which the “gcPBM binding intensity (ln)” value worked out at 8.88 ± 0.6.
With “TGAATAAATCAAAGCACACATACACAGACATATATA [CACACA_site4316]”, the “gcPBM binding intensity (ln)” value worked out at 8.79 ± 0.4.
As for “AACAGATAATATAAAAAAAAAAAAAAAAATAATTAA [GTGCAC_negctrl_site69]”, the figure is 8.07 ± 0.53; as for “TATATAAATAAACACACACACACCTTATAATTATTA [CACACA_site9345]”, 8.69 ± 0.58.
Then “CTTGTCATTTGGCACACACACATGTATAGGTTATTA [CACACA_site5656]”, with 8.71 ± 0.42.
As for “TAAAGTTTTTCCTATCTATATTTATATTATAAATGA [XGTACX_negctrl_site20]”, the figure is 8.11 ± 0.46.
As to “GTGAGTGAAATATGCAAACACACACCCGAAAAATGT [CACACA_site3197]”, the “gcPBM binding intensity (ln)” value is 8.7 ± 0.57.
As for “TATAAAGGTATACAAAGTACAAAATACATATATACT [XGTACX_site6431]”, the figure is 8.42 ± 0.31.
Then “TATGATTTTAATGAAACACACAATTTTATGTTAATA [CACACA_site311]”, with 8.11 ± 0.4; and “TAATATATGTTATATACACACATATAAATATAAATA [CACACA_site6339]”, with 8.29 ± 0.42.
As for “TGTGTATAAGTCACTTGTACTAGTAGTAAAAAAAAA [XGTACX_site4341]”, the “gcPBM binding intensity (ln)” value is 8.61 ± 0.42.
As for “TGAAGTATAATTTATCTAATATGTTATATTTTATTT [TGCATGCA_negctrl_site56]”, the figure is 7.76 ± 0.46; as for “CAAATAATATTATGAAGTACTTCAAATTTTGAAAGA [XGTACX_site2530]”, 8.52 ± 0.28.
Regarding “TTTAATATTATTATTTTACACACTTTTTTCCTTTTA [CACACA_site8780]”, the “gcPBM binding intensity (ln)” value was found to be 8.49 ± 0.42.
As to “AATATAGGTATATCCACACACATATTTATATTTATA [CACACA_site6867]”, the “gcPBM binding intensity (ln)” value is 8.52 ± 0.38.
Then “TCTTATAAACTCTGCACACATAATATATTAAATGAG [CACACA_site1936]”, with 8.48 ± 0.35; and “TTTTTTACAGAAAAATATTAAAATTATAAATGTGAA [GTGCAC_negctrl_site451]”, with 8.39 ± 0.37.
Then “GCCCACACGAACCATGCATGCCACGATATAAACCAC [TGCATGCA_site322]”, with 9.27 ± 0.46; and “TATGAAATTTTAATTACACACAGGAAAATAAAATGT [CACACA_site8430]”, with 8.73 ± 0.35; and TAATATATATATATGGTGCATTTAATTTATATATAA, with 8.75 ± 0.3.
On to “TTATAATATATATAAAAGAAAAAAAATTATAATATA [CACACA_negctrl_site90]”, for which the “gcPBM binding intensity (ln)” value is 8.39 ± 0.48.
Take “TTATTTTTCTTTATTGGTACACACGAAAAAAAAATT [XGTACX_site6482]”: the “gcPBM binding intensity (ln)” value was 8.47 ± 0.3.
Then “ATATATATTTTTAATTGTACAGAATTAAAAATATTG [XGTACX_site1967]”, with 8.4 ± 0.36; and “CTTTAACCATATATGTGTACGTATTTTATTCATATT [XGTACX_site6212]”, with 9.14 ± 0.3; and “AAAAAAAAAAAAAGCTGTACAATTAAAGACAAACCT [XGTACX_site8610]”, with 8.85 ± 0.77.
For the sequence “AAGAAGTGGAAAATATACTCCACATATATATATGTG [CACACA_negctrl_site304]”, the “gcPBM binding intensity (ln)” value was determined as 8.52 ± 0.23.
As for “AAAAAACAATTTGTGTGTACACATGATACGTTCGAT [XGTACX_site4112]”, the figure is 8.88 ± 0.56.
Then “TATATAGTAAATATTTGTACATAATAAAATATATGT [XGTACX_site7873]”, with 8.38 ± 0.29.
Regarding “ATCTTAATTTTTGAAGGTACACACTAATATATTAAA [XGTACX_site2292]”, the “gcPBM binding intensity (ln)” value is 8.51 ± 0.42.
As for “ATATTTTATTATATAGGTACACATAATTTCATGTAA [XGTACX_site415]”, the figure is 8.4 ± 0.23.
As for “AATAAATAAAAATGCACACAGTTAACATGTTGAATT [CACACA_site4795]”, the figure is 8.77 ± 0.45; as for “TTTTGTACATCTTTTGCACACGTAATGTTATTATAA [CACACA_site1259]”, 8.935 ± 0.035.
Then “TTTTTTTTTTATTAATGTACAAGATATATAATGTTA [XGTACX_site4809]”, with 8.21 ± 0.44; and “TATAATATAAAAATGAGTACATAGATAATAATATTT [XGTACX_site2376]”, with 8.66 ± 0.3; and “ATATGGATTATACATACATGCATACATACATACATA [TGCATGCA_site475]”, with 8.63 ± 0.17.
In the case of “TATATACATATATGCACACAAAAAAATATATATTTT [CACACA_site1729]”, the “gcPBM binding intensity (ln)” value was found to be 8.7 ± 0.36.
Then “TGCAATATATCAAAGTGTACATGCAATAAAAAAAAA [XGTACX_site652]”, with 9.21 ± 0.38.
For “AATGATACACATATATGTACATATATATATATATAT [XGTACX_site5391]”, the “gcPBM binding intensity (ln)” value stood at 10 ± 0.58.
As for “AAATGTAGAAAAAGTTGTACACTGTTTCAAAAATAA [XGTACX_site1063]”, the figure is 8.55 ± 0.34; as for “AAAATTTAATATAATGCACACATAAAACAAAAACAA [CACACA_site8071]”, 9.04 ± 0.33; as for “TTTAAAGTTTTATACACACACCAAAGTTATTCTAAT [CACACA_site6432]”, 8.33 ± 0.41.
As for “CAATGAAAAATAATGAGTACATAGTTAATAAAGATA [XGTACX_site72]”, the figure is 8.81 ± 0.43; as for “AATTTCTTTTTCGATATACACACTGTATGTGTCTAA [CACACA_site3975]”, 8.62 ± 0.47; as for “ATAATTAAAATTAAATGTACTTTTTTATATATTTTT [XGTACX_site2209]”, 8.2 ± 0.3.
Then “CATAAATAATATATTTGTACGAATAAAATTTGTTCA [XGTACX_site3445]”, with 8.2 ± 0.4.
